# About 2,200 (0.71%) of roughly 310,000 compounds showed an effect of 50% or more. The effect is printed as a negative number. The list shows a part of the results.
# Target: human ether-à-go-go-related gene (hERG) potassium channel (human, UniProt Q12809)
# Experiment: primary screen, population patch clamp on CHO cells stably expressing hERG
# human ether-à-go-go-related gene (hERG) potassium channel, sequence (Q12809 whole entry, looked up): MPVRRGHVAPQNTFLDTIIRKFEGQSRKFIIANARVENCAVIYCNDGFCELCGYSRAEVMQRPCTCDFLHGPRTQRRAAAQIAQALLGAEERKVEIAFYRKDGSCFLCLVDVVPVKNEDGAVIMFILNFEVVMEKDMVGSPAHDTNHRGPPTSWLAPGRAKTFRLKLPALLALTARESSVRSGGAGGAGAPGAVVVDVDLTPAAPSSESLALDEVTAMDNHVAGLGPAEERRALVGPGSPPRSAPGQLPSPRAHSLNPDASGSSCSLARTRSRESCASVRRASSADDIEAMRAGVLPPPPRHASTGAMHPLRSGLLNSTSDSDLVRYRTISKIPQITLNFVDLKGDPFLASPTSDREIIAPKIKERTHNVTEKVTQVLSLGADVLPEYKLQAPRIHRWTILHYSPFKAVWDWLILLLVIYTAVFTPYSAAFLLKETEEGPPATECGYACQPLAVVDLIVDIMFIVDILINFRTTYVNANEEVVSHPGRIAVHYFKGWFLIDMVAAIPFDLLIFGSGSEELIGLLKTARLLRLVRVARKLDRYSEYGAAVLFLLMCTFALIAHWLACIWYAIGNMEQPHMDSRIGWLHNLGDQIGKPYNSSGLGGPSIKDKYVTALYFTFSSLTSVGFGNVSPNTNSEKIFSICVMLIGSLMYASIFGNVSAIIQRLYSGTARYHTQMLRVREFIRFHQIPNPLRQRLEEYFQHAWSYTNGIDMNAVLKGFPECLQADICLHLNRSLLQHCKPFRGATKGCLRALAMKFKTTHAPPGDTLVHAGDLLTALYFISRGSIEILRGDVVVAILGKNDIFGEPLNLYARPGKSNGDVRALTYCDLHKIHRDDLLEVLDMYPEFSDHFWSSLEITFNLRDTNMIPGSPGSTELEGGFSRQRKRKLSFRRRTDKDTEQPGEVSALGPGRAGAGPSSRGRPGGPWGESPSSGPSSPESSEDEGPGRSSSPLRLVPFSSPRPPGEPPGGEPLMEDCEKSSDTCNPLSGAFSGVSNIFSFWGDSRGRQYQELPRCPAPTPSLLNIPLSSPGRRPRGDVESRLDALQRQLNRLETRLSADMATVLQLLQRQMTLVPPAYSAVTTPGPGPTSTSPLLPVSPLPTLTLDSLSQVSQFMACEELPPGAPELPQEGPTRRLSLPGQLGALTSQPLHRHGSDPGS
row,SMILES,"hERG current change (%, negative = inhibition) at 1uM"
1,CC(C)N(C(=O)COC(=O)c1cccc(C(=O)OCC(=O)N(C(C)C)C(C)C)n1)C(C)C,14.7%
2,Cc1nc2ccccc2n1CCc1nc2c3ccccc3nc(=S)n2[nH]1,0.137%
3,CCC(Sc1ncccc1C(=O)O)C(=O)N1CCOCC1 (stereo not drawn),1.01%
4,Cc1ccc(NC(=O)C2CCCC2)cc1S(=O)(=O)N1CCOCC1,-0.761%
5,CCOC(=O)CC1CCCCN1Cc1nc(-c2ccc(F)c(OC)c2)oc1C (stereo not drawn),-2.09%
6,O=C(NCCCN1CCN(CCCNC(=O)c2ccccc2F)CC1)c1ccccc1F,-7.16%
7,CCCN1CCC(N2CCCC(C(=O)O)C2)CC1.Cl (stereo not drawn),16.4%
8,O=C(CN1CCN(C(c2ccccc2)c2ccccc2)CC1)N1N=CCC1c1ccccc1 (stereo not drawn),-5.07%
9,CCC(=O)NCc1ccc(-c2nc3ncccc3o2)cc1,15.1%
10,CCN1CCCC1Cn1cnc2c([nH]c3cc(OC)ccc32)c1=O (stereo not drawn),-53.5%
11,COCc1cc(CN(C)C(=O)c2oc3c(F)cccc3c2C)[nH]n1,10.3%
12,C=CCN1C=C2C(=O)C(C)(OC(=O)CCC(=O)OC)C(=O)C(Br)=C2C=C1c1ccc(OC)cc1 (stereo not drawn),7.67%
13,CN(C)CCNC(=O)c1cc2sc3ccccc3c2s1.Cl,9.53%
14,CC1CN(C(=O)CCC(=O)N2CCC3(CC2)OCCO3)c2cc(Cl)ccc2O1 (stereo not drawn),4.85%
15,COc1ccc(Cc2nnc(NC(=O)CSc3ccc(C)cc3)s2)cc1OC,4.74%
16,N#CCCn1cc(C=C2C(=O)NC(=O)NC2=O)c(-c2ccccc2)n1,15.9%
17,O=S(=O)(NC1CCCc2ccccc21)c1cnc[nH]1 (stereo not drawn),7.53%
18,COC(=O)CN(C(=S)Nc1ccccc1)C1CC(=O)N(c2ccc(OC)cc2)C1=O (stereo not drawn),5.55%
19,CCn1c(Cc2ccccc2)nnc1SCC(=O)Nc1nnc(-c2ccccc2)s1,11.7%
20,CC(C)(Oc1ccc(Cl)cc1)C(=O)Nc1c2c(nn1C(C)(C)C)CS(=O)(=O)C2,-25.1%
21,CCCCCCc1cc2cc(-c3nnc(-c4ccccc4O)o3)c(=O)oc2cc1O,-4.81%
22,Cc1ccc(/S(C)=N/S(=O)(=O)c2ccc(C)cc2)cc1 (stereo not drawn),10.7%
23,O=C(NCc1ccco1)c1ccccc1,4.69%

row,SMILES,"hERG current change (%, negative = inhibition) at 1uM"
1,O=C(O)C(=O)O.OCCN1CCN(CC(O)COC(c2ccc(F)cc2)c2ccc(F)cc2)CC1 (stereo not drawn),-20.2%
2,O=C(CCC1CCCN(C(=O)c2ccoc2)C1)NCc1ccc(F)c(F)c1 (stereo not drawn),3.67%
3,CCCOc1ccc(C(=O)NNC(=S)NC(=O)c2ccco2)cc1,11.7%
4,Cc1cc(NC(=O)CCC(=O)N(Cc2ccccc2)C2(C(=O)NC3CCCCC3)CCCC2)no1,8.05%
5,CCN(CC)CCCNc1nc(N)c([N+](=O)[O-])c(N2CCCCCC2)n1,1.42%
6,CC(=O)Nc1ccc(NC(=O)CCNS(=O)(=O)c2cccc3nsnc23)cc1,18.9%
7,COc1ccc(NC(=O)Cc2ccccc2F)cn1,-6.84%
8,CC1Cc2ccccc2N1C(=O)/C=C/c1cccc(F)c1 (stereo not drawn),13.3%
9,COc1ccc(CN2CCCCC2c2cccnc2)cc1C (stereo not drawn),10.1%
10,C=CCOc1ccc(C=Nc2ccc(C)c(Cl)c2)c(O)c1,11.2%
11,CCOC(=O)C1CCCCN1S(=O)(=O)c1cc2c(cc1C)NC(=O)CO2 (stereo not drawn),-1.58%
12,CC1CCCN(CCCOc2ccc(Br)cc2Cl)C1.O=C(O)C(=O)O (stereo not drawn),-46.1%
13,Cc1cc(C)[n+](-c2ccc(C(C)C)cc2)c2[nH]c(=O)[nH]c(=O)c12.[I-],-1.23%
14,COc1cccc(CNc2ccc([N+](=O)[O-])cc2C)c1,10.7%
15,CC1(C)CC(=O)C2=C(C1)N=C1SCCC(=O)N1C2c1ccccc1 (stereo not drawn),7.18%
16,O=C(CCSCc1cccc(Cl)c1)NC1CCCC1,2.44%
17,Cn1cnc([N+](=O)[O-])c1Sc1ccc(Br)cc1,10.6%
18,Cl.OCCNCCNCc1ccccc1OCc1ccccc1,11.1%
19,O=C1CCCc2c1cc(C(=O)O)c(=O)n2-c1ccccc1,13.7%
20,COc1cccc(C(=O)NCCS(=O)(=O)N2CCN(C(=O)c3ccco3)CC2)c1,1.81%
21,CCOC(=O)c1c(N)n(C2CC(C)(C)NC(C)(C)C2)c2nc3ccccc3nc12,-1.51%
22,COc1ccccc1/C=C(/CC(=O)NCc1ccc(F)cc1)c1nc2ccccc2s1,1.42%
